From paper PMC12136788
This is one part of the list.

T1: UNK ZnF1-3 (human, UniProt Q9C0B0 31-174)
T1 sequence: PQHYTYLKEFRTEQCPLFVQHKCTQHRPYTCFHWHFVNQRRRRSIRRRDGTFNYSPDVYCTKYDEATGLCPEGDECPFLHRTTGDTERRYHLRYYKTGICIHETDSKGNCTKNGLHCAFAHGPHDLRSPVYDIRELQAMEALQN

B1: chr4:88366126:88366127:-_ENSMUSG00000070923_ENSMUST00000094993|mus_hu|FALSE|FALSE (ssRNA)
RNA: GGGAGUUCUACAGUCCGACGAUCUGCUGAAAGAGGUGAUUCUCUAGAAGGUGACCCAGGGUUUUCUUCAGGUGGAAAAACUGUGAGUGUACAGGCUCGAAUGCCACCAAGUGACUCUGGAAGAUCAAAAACUUUAUGCCACUCCAACAGAGGAUUGAGCAUCA
B2: chr4:95690885:95690886:+_ENSMUSG00000028572_ENSMUST00000156910|mus_mus|mus_mus_mus_hu_False|98_98 (ssRNA)
RNA: GGGAGUUCUACAGUCCGACGAUCUUUAGAAAAUGUUAAUGUUAAAUCUAAAAUAUUUUCAAAGGCUUAUUUUAUUUUACCAGAAGUCACAGGCAAGCAGACACUACAAGAAUAUAUGAAAAUGAAACUCAACAAUAUAACUGUCAACAGAGGAUUGAGCAUCA
B3: chr10:84137372:84137373:+_ENSMUSG00000034453_ENSMUST00000077175|mus_mus|FALSE|FALSE (ssRNA)
RNA: GGGAGUUCUACAGUCCGACGAUCGUAAGAGAGCUCUUCUCCACAUAAUAAAUUCACAUCUUCUACUCCCAAGUUCCCAGCUAACUUAAUAAUGGGUCCAUCUUCCAUGUCAGUUGUUAUAUGUGUCAUGAGGGCCAAGUUCUUCAACAGAGGAUUGAGCAUCA
B4: chr11:19991362:19991363:-_ENSMUSG00000020152_ENSMUST00000000137|mus_hu|FALSE|FALSE (ssRNA)
RNA: GGGAGUUCUACAGUCCGACGAUCCAAAGUCAGAACUGCCUGGAUGGCUACAUAUACACCGGAAAACUGGUAAGUUUCAAACAUUACCUCUACAAUCUUCUCUCUGUUUUUGGUUGGGUUCAUAGGAGGUUCUGUGAGUAAGAUCAACAGAGGAUUGAGCAUCA
B5: chr4:62048941:62048942:+_ENSMUSG00000066150_ENSMUST00000084526|mus_hu|FALSE|FALSE (ssRNA)
RNA: GGGAGUUCUACAGUCCGACGAUCUUGUGACUUACGCAGCAGGCUCUCUCGGGCUAUCUUGAGUCCUUCAUAGAACAUUGCUAGUAAAAACACUGCCACAAAAGCUCCAGCCAUUUCUCCAGCUGUAUUGAUCACCAAACCGGACAACAGAGGAUUGAGCAUCA
B6: chr6:38652254:38652255:-_ENSG00000124767_ENST00000373365|hu_hu|hu_hu_hu_mus_False|8_18 (ssRNA)
RNA: GGGAGUUCUACAGUCCGACGAUCCGAGAACUUCAUAGCAGGGAAGUCAAGCUUCUGCAGGAGGGUCAGUCCAAGAACCCUCGUAUAAAAAUCCAGGGACUUCUUAGGAUCCUUAAUUCGUAGCAUGGUCUGCUGCAGUAGAAACAACAGAGGAUUGAGCAUCA
B7: chr4:116827845:116827846:-_ENSMUSG00000047675_ENSMUST00000140226|mus_mus|motif|central (ssRNA)
RNA: GGGAGUUCUACAGUCCGACGAUCACAAGUCCUUGCAUUGGCAAGUGGUGUACAGGUGGCCAAGACGGCCAUAACCACGCCGGAGGAUACGUUUUCAUCACCCUAGUUACCUCCAGAAAAAGCCAGACCCCCCCUAACACAGGACAACAGAGGAUUGAGCAUCA
B8: chr22:32879901:32879902:+_ENSG00000100225_ENST00000397426|hu_mus|hu_hu_hu_mus_False|1_18 (ssRNA)
RNA: GGGAGUUCUACAGUCCGACGAUCCUCUUCCAUACUCAUGGCAUCCUGAAUUGACUCAGCUUCAACAUUUUGACUAGGCCCUUCCAUACUGUCAUCAGUCCAGGCAUCAAAUGGGGUUGCCUGUCCUUGGGAUGAAUCACUUGGCAACAGAGGAUUGAGCAUCA
B9: 39555151_39564275_314_CDS_ENSMUSG00000025862_ENSMUST00000069619|mouse|control|control (ssRNA)
RNA: GGGAGUUCUACAGUCCGACGAUCCUUUUUGCCUUUUUUACAAGUUUUGCCUUUGCCUUGCUUCUGAUUUUUUCCUUCAAUGUCUUCAAAAUCUGUGUCAGAAGAAAAGUGUGUCUCUGACUCCUGCAGUAGAUUAAAAUCAGUCAACAGAGGAUUGAGCAUCA
B10: 25140530_25140650_2237_CDS_ENSMUSG00000026965_ENSMUST00000028341|mouse|control|control (ssRNA)
RNA: GGGAGUUCUACAGUCCGACGAUCUGAGUCACUCUCAUCAUCACUGUCAAUCAGCACCAUGUUGUCCCUAUCCUGAGGCCGCUCUUCCUCAAUGACAGAGAAAGUGCCUGGAGGUUCCUCCCGCAGCACACCCUGUUGCAGCCACAACAGAGGAUUGAGCAUCA
B11: chr19:15981513:15981514:-_ENSMUSG00000024640_ENSMUST00000025542|mus_hu|FALSE|FALSE (ssRNA)
RNA: GGGAGUUCUACAGUCCGACGAUCUAAAGCAUCAUCUCCUUUGGCAUUGCCAAUGCGGAAUGGAAUAUUCAUCUUGCUUCUAUUUUGGGGCUCCACUGGACAAACGUAGAAUCCUUGAGAAUUAUCAAUAAUCUCAUAAAUUGUCAACAGAGGAUUGAGCAUCA
B12: 37602415_37605724_1144_CDS_ENSG00000102710_ENST00000475892|human|control|control (ssRNA)
RNA: GGGAGUUCUACAGUCCGACGAUCUUCAAAUACAUAAUCAUCUUUUACAUCAUGGGCUGGCCAGACUGUUGGCUGUGAGUCAUCAGAUUUGAUAGACUUUUCCACUUUAGCAUAUUUCUCCACAUCUACUUCAGAAGGUAUGGCCAACAGAGGAUUGAGCAUCA
B13: chr2:42509997:42509998:+_ENSG00000143924_ENST00000318522|hu_mus|hu_hu_hu_mus_True|58_78 (ssRNA)
RNA: GGGAGUUCUACAGUCCGACGAUCUCGCUGAGUCCUCUCCUCAUAAUUAAACAGGACUACUACUGAUGCGAUAAAAUAAACUAUUUUCCCUGUGGGAAGCAGGUAUACAUUCGCUCUACAGUCCUUUCCUCGAUAACCGUAUACCAACAGAGGAUUGAGCAUCA
B14: chr8:95500983:95500984:-_ENSG00000164944_ENST00000437199|hu_hu|hu_hu_hu_mus_True|1_8 (ssRNA)
RNA: GGGAGUUCUACAGUCCGACGAUCAGAACACAUCUAUCGAGUAAAGGACCGUACAUGACGGCCUCUACCACUGCCUCCACUAACAAACUUUCCUCUCGAGCCUCCACUGCCGCUAUUUGUACUAGCCCCAGGAAGGUCCAAGUCCAACAGAGGAUUGAGCAUCA
B15: chr16:94690093:94690094:+_ENSMUSG00000040785_ENSMUST00000117648|mus_hu|mus_mus_mus_hu_True|18_28 (ssRNA)
RNA: GGGAGUUCUACAGUCCGACGAUCGGGCUGGGAUGACGGACACACAGCCUCGAUUCCAGGGGGAAAAAGUCUUAGUCGAUACUAAUUAAAAAGUGUUAAUGAUUUUUAUUACCAAAAUGUAGAUUAAAAAAGAUGAAAAGCAAACAACAGAGGAUUGAGCAUCA
B16: 13601392_13601512_7207_CDS_ENSG00000038219_ENST00000040738|human|control|control (ssRNA)
RNA: GGGAGUUCUACAGUCCGACGAUCGCUGGGCAUGGGGACCUUGUGCUUGCUCACUUCUGUGGCUGACAGGUCACCGUUCCCUUCUGGGUUGUCUGCAGUCAGCUGAUUCUCUUCAUGUCUGUCAAUGCUGGCGGAAAUUGGCAUCAACAGAGGAUUGAGCAUCA
B17: chr4:57860909:57860910:+_ENSG00000047315_ENST00000314595|hu_mus|FALSE|FALSE (ssRNA)
RNA: GGGAGUUCUACAGUCCGACGAUCAUCUGUUAAGCCAUUUAACAGGCAGUAGGUGGAGCGCAGCAUAAUUGGAAUUUUCCCUAUGAACGUUUUCUGGUGCUGAGUCUGCAGCUGUUCUUCACCUUCUUUAAUGACUGUCUUUGUCAACAGAGGAUUGAGCAUCA
B18: chr4:48472875:48472876:-_ENSMUSG00000028345_ENSMUST00000030030|mus_mus|FALSE|FALSE (ssRNA)
RNA: GGGAGUUCUACAGUCCGACGAUCACUGUUCAAUCUAGUGCCACCUUUAAGGGUCUCCGUCACAAACUUCCUUAUUGUUUCUAUCCAACUGGAAUCAUUCUGUAAGGUUGAAGCAUUUGCCAGCGAGACCAUGAUAUCAGACAGCAACAGAGGAUUGAGCAUCA
B19: chr12:2981354:2981355:-_ENSG00000111206_ENST00000359843|hu_mus|FALSE|FALSE (ssRNA)
RNA: GGGAGUUCUACAGUCCGACGAUCGCAGGGGCCCAGCCCGUCAGAACUCAUCUUUCCAAGCCACUGGAUAUUGGUUAAGCUGUUGUCCAGCGUGCAGCCUGCCGCCUCACCACCAGCAUAGCUCUCCUGUCUUUGCCUUGGAGGCAACAGAGGAUUGAGCAUCA
B20: chr3:158399885:158399886:+_ENSG00000168827_ENST00000264263|hu_hu|motif|central (ssRNA)
RNA: GGGAGUUCUACAGUCCGACGAUCUUCAUCUGAAAAUUCCAAUUUAGUGUAGUCCUCUGGGUCCAGAGGCUCCAGGACACCGGUUACUUUUCCAUACUGGCCUGCACCACCUGAUUGUUUUUUAUGUGUAAAGUCAAACGGGACCAACAGAGGAUUGAGCAUCA
B21: 15614643_15618832_3151_3pUTR_ENSMUSG00000021733_ENSMUST00000057015|mouse|control|control (ssRNA)
RNA: GGGAGUUCUACAGUCCGACGAUCCUUGCGCACAAAGACUAAUGCAAGAACCAUCAUGGGAAAAACUACUGCAGCAGCAGAGGCUUUGAUCACCCACAGCAGGACUAGGCAGGUCAGCUGGACGACCGUGAACACGUGCACCUUCAACAGAGGAUUGAGCAUCA
B22: chr7:30890253:30890254:+_ENSMUSG00000049421_ENSMUST00000108200|mus_mus|FALSE|FALSE (ssRNA)
RNA: GGGAGUUCUACAGUCCGACGAUCUUCUUUCUGGCUAAAAGCCUUACCACACUCAUUACACUUAAAAGGUUUCUUCCCACUAUGGAUAUUCUGGUGUUUAAUGAGGUAUUGCUUCUGGCUGAAGGCUCUUCCACACUGACUACACAACAGAGGAUUGAGCAUCA

target: T1, UNK ZnF1-3; experiment: nsRBNS (natural sequence RNA bind-n-seq); RBNS binding buffer (assumed for nsRBNS): 25 mM Tris pH 7.5, 150 mM KCl, 3 mM MgCl2, 0.01% Triton X-100, 500 ug/ml BSA, 20 U/ml SUPERase-In, 4 C; UNK is unkempt and MSI1 is Musashi-1; names of the RNAs are library labels; protein concentration not given here; high values mean tight binding

Row | Binder | binding signal
1 | B1 | 1.17 enrichment R
2 | B2 | 1.8 enrichment R
3 | B3 | 1.17 enrichment R
4 | B4 | 1.59 enrichment R
5 | B5 | 0.629 enrichment R
6 | B6 | 0.631 enrichment R
7 | B7 | 0.968 enrichment R
8 | B8 | 0.817 enrichment R
9 | B9 | 0.712 enrichment R
10 | B10 | 0.832 enrichment R
11 | B11 | 0.811 enrichment R
12 | B12 | 0.772 enrichment R
13 | B13 | 1.5 enrichment R
14 | B14 | 0.727 enrichment R
15 | B15 | 2.72 enrichment R
16 | B16 | 0.283 enrichment R
17 | B17 | 0.561 enrichment R
18 | B18 | 0.859 enrichment R
19 | B19 | 0.503 enrichment R
20 | B20 | 0.989 enrichment R
21 | B21 | 1.52 enrichment R
22 | B22 | 0.644 enrichment R
